From article PMC3912011
These are yes or no findings as the source states them, for the method shown. Binding seen in cells or lysates may run through a third protein. Some binding calls cover weakened binding; strength is not graded here. Where a sequence is shown, tags or fusion partners need not be part of it. Values belong to the binder of their own block, whether it stands above or below them.

Experiments:
[1] = target: T1, GCDH His6-fusion protein (human glutaryl-CoA dehydrogenase, mature enzyme) (human) (UniProt Q92947); assay: pull-down; GCDH coupled covalently to Affi-Gel 10, incubated with pig liver mitochondrial matrix proteins; high salt elution fraction tested by anti-DLST and anti-ETFB western blotting; non-coupled beads as control; only the target purified
T1 sequence: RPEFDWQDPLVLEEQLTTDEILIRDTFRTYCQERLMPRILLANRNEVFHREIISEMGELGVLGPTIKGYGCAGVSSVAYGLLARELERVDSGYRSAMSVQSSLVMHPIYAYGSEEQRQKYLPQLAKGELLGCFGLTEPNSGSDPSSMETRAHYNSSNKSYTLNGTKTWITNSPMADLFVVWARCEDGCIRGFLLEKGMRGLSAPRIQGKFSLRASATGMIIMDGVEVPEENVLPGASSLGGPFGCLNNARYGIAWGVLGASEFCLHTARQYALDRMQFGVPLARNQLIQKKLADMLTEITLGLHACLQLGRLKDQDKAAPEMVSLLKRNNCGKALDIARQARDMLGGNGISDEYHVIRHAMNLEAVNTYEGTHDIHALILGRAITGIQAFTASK

[2] = target: T2, ETFA-YFP2 (human) (UniProt P13804); assay: split reporter; YFP-based protein fragment complementation assay: YFP1 (1-158) and YFP2 (159-239) C-terminal fusions co-expressed in BHK cells, fixed 24 h after transfection, confocal fluorescence microscopy
T2 sequence: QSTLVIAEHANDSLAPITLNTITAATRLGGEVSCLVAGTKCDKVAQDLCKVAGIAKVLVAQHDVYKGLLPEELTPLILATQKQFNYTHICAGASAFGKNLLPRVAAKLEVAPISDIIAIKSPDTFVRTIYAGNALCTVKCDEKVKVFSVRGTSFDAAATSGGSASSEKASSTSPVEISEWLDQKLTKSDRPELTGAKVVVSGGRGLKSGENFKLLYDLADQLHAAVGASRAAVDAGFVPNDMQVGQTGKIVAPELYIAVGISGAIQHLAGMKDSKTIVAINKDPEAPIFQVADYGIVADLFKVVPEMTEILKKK

[3] = target: T3, GCDH fused C-terminally to YFP1 or YFP2 (protein complementation assay) (human) (UniProt Q92947); assay: as above
T3 sequence: T1 sequence

[4] = target: T4, ETFB-His6 (human electron transfer flavoprotein subunit beta), from E. coli (human) (UniProt P38117); assay: pull-down; ETFB-His6 or ETFA-His6 from E. coli immobilised on Ni-NTA agarose, incubated 2 h with 0.3 mg BHK cell extract overexpressing GCDH-Myc or LC3-GFP; buffer 50 mM NaH2PO4 pH 7.8, 300 mM NaCl, 10 mM imidazole; western blotting; only the target purified
T4 sequence: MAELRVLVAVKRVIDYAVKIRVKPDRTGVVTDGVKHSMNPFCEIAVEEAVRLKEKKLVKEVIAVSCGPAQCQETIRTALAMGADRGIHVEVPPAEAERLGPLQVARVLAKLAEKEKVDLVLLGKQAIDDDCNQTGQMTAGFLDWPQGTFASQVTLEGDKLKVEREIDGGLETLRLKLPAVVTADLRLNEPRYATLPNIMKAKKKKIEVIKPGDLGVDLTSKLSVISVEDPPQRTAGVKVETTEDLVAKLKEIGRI

[5] = target: T5, ETFA-His6 (human electron transfer flavoprotein subunit alpha), from E. coli (human) (UniProt P13804); assay: as above
T5 sequence: T2 sequence

[6] = target: T6, multiple coagulation factor deficiency protein 2 fused to YFP2 (UniProt Q8NI22); assay: split reporter; YFP-based protein fragment complementation assay: YFP1 (1-158) and YFP2 (159-239) C-terminal fusions co-expressed in BHK cells, fixed 24 h after transfection, confocal fluorescence microscopy
T6 sequence: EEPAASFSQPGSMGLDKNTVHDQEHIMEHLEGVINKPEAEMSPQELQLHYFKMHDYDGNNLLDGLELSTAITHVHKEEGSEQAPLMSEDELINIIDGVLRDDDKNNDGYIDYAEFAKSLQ

[7] = target: T7, 3-hydroxy-3-methylglutaryl-CoA lyase fused to YFP2 (UniProt P35914); assay: as above
T7 sequence: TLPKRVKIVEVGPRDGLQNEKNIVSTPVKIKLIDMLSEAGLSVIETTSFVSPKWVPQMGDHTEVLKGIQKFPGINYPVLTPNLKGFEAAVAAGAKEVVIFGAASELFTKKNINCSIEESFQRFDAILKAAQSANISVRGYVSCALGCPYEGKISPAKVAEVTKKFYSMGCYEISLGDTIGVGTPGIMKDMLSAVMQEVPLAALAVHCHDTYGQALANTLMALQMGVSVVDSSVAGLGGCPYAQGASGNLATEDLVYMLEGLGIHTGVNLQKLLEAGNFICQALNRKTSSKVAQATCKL

[8] = target: T8, ETFB fused C-terminally to YFP1 or YFP2 (protein complementation assay) (human) (UniProt P38117); assay: as above
T8 sequence: T4 sequence

B2: ETFB fused C-terminally to YFP1 or YFP2 (protein complementation assay) (protein, UniProt P38117-1 1-255)
chain: T4 sequence
binding [2]: binds
binding [3]: binds

B5: GCDH fused C-terminally to YFP1 or YFP2 (protein complementation assay) (enzyme, UniProt Q92947 45-438)
chain: T1 sequence
binding [2]: binds weakly
binding [6]: no binding
binding [7]: no binding
binding [8]: binds
binding [3]: binds

More lines, now with the values ahead:

binding [1]: binds
B1: electron transfer flavoprotein subunit beta (pig liver mitochondrial matrix) (protein, UniProt Q6UAQ8 1-255)
chain: MAELRALVAVKRVIDFAVKIRVKPDRTGVVMDGVKHSMNPFCEIAVEEAVRLKEKKLVKEVIAVSCGPAQCQETIRTALAMGADRGIHVEVPAAEAHHLGPLQVARVLAKLAQKEKVDLVLLGKQAIDDDCNQTGQMTAGFLDWPQGTFASQVTLEGDKVKVEREIDGGLETLRLKLPAVVTADLRLNEPRYATLPNIMKAKKKKIEVIKAGDLGVDLTSKLSVVSVEDPPQRVAGVKVETTEDLVAKLREIGRI

binding [1]: binds
B3: dihydrolipoamide S-succinyltransferase (pig liver mitochondrial matrix) (enzyme, UniProt Q9N0F1 69-455)
chain: DDVITVKTPAFAESVTEGDVRWEKAVGDTVAEDEVVCEIETDKTSVQVPSPANGVIEALLVPDGGKVEGGTPLFTLRKTGAAPAKAKPAEAPAAAAPKAEPAVSAVPPPPAASIPTQMPPVPSPPQPLTSKPVSAVKPTAAPPVAEPGAVKGLRAEHREKMNRMRQRIAQRLKEAQNTCAMLTTFNEIDMSNIQDMRARHKEAFLKKHNLKLGFMSAFVKASAFALQEQPVVNAVIDDTTKEVVYRDYIDISVAVATPRGLVVPVIRNVETMNYADIERTISELGEKARKNELAIEDMDGGTFTISNGGVFGSLFGTPIINPPQSAILGMHAIVDRPVAVGGKVEIRPMMYVALTYDHRLIDGREAVTFLRKIKAAVEDPRVLLLDL

binding [4]: binds
binding [5]: binds weakly
B4: GCDH-Myc (human), expressed in BHK cells (enzyme, UniProt Q92947 45-438)
chain: T1 sequence
